# Laboratory results reported in PubChem BioAssay AID1476 (National Center for Advancing Translational Sciences (NCATS), 2009).
# Among all 200,000 compounds or so, about 4,500 (2.2%) were called active. The inconclusive results got no clear call from the source; some entries with a clear call stand among them for comparison. Calls come from the whole dose curve; as a rule, active = well fitted inhibition curve with a large enough effect; inconclusive = small, poorly fitted or top-dose-only effect, or effect the other way; inactive = flat fitted curve, though single readings scatter. A potency beside an inconclusive call is a rough fit, not a confirmed value.
# Target: Cruzipain (Trypanosoma cruzi) (UniProt P25779)
# Chain of UniProt P25779 (P25779 whole entry, looked up): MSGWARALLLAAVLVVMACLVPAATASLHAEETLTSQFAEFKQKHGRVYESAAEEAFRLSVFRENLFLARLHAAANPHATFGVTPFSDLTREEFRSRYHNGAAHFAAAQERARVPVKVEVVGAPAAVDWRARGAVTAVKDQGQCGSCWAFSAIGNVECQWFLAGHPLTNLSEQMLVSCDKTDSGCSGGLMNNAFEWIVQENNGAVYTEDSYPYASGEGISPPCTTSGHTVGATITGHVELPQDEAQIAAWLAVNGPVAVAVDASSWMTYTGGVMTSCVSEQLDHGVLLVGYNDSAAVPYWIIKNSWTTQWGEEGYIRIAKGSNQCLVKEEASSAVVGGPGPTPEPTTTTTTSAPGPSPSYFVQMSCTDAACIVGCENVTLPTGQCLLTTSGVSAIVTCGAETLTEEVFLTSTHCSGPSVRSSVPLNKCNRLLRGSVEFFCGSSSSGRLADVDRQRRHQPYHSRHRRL
# Assay: qHTS Assay for Promiscuous and Specific Inhibitors of Cruzain (without detergent); note: nearly all actives have a fitted effect of over 40% in size;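 for max response, negative = inhibition: plate controls were enzyme without inhibitor for no effect and buffer without enzyme for full effect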
# Conditions: purified cruzain, Z-FR-AMC fluorescence, no detergent
# Procedure, shortened: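 Purified cruzain at 1.5 nM, pre-incubated 15 min with compound at room temperature in 100 mM sodium acetate pH 5.5, 5 mM DTT, 0.00005% Triton X-100. Reaction started with 2 uM Z-FR-AMC; AMC fluorescence increase over 60 s gives rate.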
# Potency is the fitted concentration of half-maximal effect; tags give direction and shape of the fitted curve.
SMILES,Potency,"max response, negative = inhibition"
Cc1ccccc1-c1nc(-c2ccc(NC(=O)c3ccc4c(c3)OCO4)cc2)no1,active: 7.94 µM,
C=CCn1c(O)c(C(CC)=Nc2ccc(N(CC)CC)cc2)c(=O)[nH]c1=O,"inconclusive: 10 µM [inhibitor, partial curve]",
O=C(c1ccco1)c1cn(CCOc2ccc(F)cc2)c2ccccc12,,inactive: 17%
CCOC(=O)CN(C(=O)Cn1nnc2ccccc21)C(C(=O)NCCOC)c1ccccc1 (stereo not given),,inactive: 6.17%
COc1c2c(nc3occc13)C(CCC(C)(C)O)(OC)C(O)CC2 (stereo not given),"inconclusive: 31.6 µM [activator, single point]",
O=C(NC1CCS(=O)(=O)C1)c1ccc(-c2ccc(Br)cc2)o1 (stereo not given),,inactive: 11.8%
CC(C)COc1ccc(C(=O)N(Cc2ccc(N(C)C)cc2)Cc2ccco2)cc1,,inactive: -17.7%
O=[N+]([O-])c1ccc(N/N=C/c2c[nH]c3ccccc23)c(S(=O)(=O)Nc2ccc(Cl)cc2)c1,"inconclusive: 39.8 µM [inhibitor, single point]",
CC1CCCCN1c1nnc(NC(=O)Nc2ccccc2F)s1 (stereo not given),"inconclusive: 20 µM [activator, partial curve]",
Cc1cccc(OCc2nnc(SCC(=O)Nc3cccc(C(=O)N4CCOCC4)c3)n2C)c1C,"inconclusive: 31.6 µM [activator, single point]",
COC(=O)C(C)Sc1ncnc2c1c(-c1ccccc1)cn2-c1ccc(F)cc1 (stereo not given),"inconclusive: 39.8 µM [inhibitor, single point]",
N=c1ccn2c(n1)O[C@H]1[C@@H](OP(=O)(O)O)[C@H](CO)O[C@H]12,,inactive: 5.16%
COc1ccccc1N1CCN(C(=O)CN(Cc2ccc(Cl)cc2)S(C)(=O)=O)CC1,"inconclusive: 25.1 µM [activator, partial curve]",
CC(C)c1cccc(C(C)C)c1NC1=NS(=O)(=O)c2ccccc21,,inactive: -2.31%
Brc1ccc(-c2cn3nc4c(nc3n2)CCCC4)cc1,"inconclusive: 31.6 µM [inhibitor, single point]",
CCOC(=O)c1cc(NC(=O)c2cnccn2)cc(C(=O)OCC)c1,"inconclusive: 12.6 µM [inhibitor, partial curve]",
CCOc1ccc(CN2CCC(C(=O)N3CCN(c4ccccc4F)CC3)CC2)cc1OC,"inconclusive: 3.98 µM [inhibitor, single point]",
C/C(CC(=O)Nc1cc(Cl)ccc1Cl)=N\NC(N)=S,active: 1 µM,
Cc1ccc(NC(=O)C2CCN(c3nc4ccccc4[nH]3)CC2)c(C)c1,,inactive: -0.651%
CCOc1cc(/C=C/C(=O)c2ccc(C)cc2)ccc1OCC(=O)N(C)C,"inconclusive: 31.6 µM [activator, single point]",
COc1cc2nc(C3CCC3)n(NC(=O)C(OC(C)=O)c3ccccc3)c(=O)c2cc1OC (stereo not given),"inconclusive: 39.8 µM [activator, single point]",
CC/C=C\C[C@H](O)/C=C/C=C\C/C=C\C/C=C\CCCC(=O)O,,inactive: -5.98%

SMILES,Potency,"max response, negative = inhibition"
COc1ccc(C)cc1NC(=O)C(OC(=O)c1ccc(Cl)c(S(=O)(=O)N(C)c2ccccc2)c1)c1ccccc1 (stereo not given),active: 10 µM,
COc1ccccc1-n1cnc2cc(NS(=O)(=O)c3ccccc3)ccc21,"inconclusive: 39.8 µM [inhibitor, single point]",
O=C(c1sc2ccccc2c1Cl)N(Cc1ccccc1Cl)C1CCS(=O)(=O)C1 (stereo not given),"inconclusive: 25.1 µM [inhibitor, single point]",
Cc1ccc(N2C(=O)C(c3c(C)[nH]n(-c4ccccc4)c3=O)(C(F)(F)F)C3=C2CC(C)(C)CC3=O)cc1 (stereo not given),"inconclusive: 31.6 µM [activator, single point]",
CCCC(=O)Nc1nnc2n1CCS2,,inactive: -10.8%
O=C(CSc1nc2c(c(=O)[nH]1)CN(Cc1ccc3c(c1)OCO3)CC2)Nc1cccc(Cl)c1,,inactive: -8.07%
CO/N=C(\C(=O)N[C@@H]1C(=O)N2C(C(=O)[O-])=C(C[N+]3(C)CCCC3)CS[C@@H]12)c1csc(N)n1,,inactive: -16.1%
Cc1c(/C=N/NC(=O)CNc2ccccc2)c2ccccn2c1C(=O)c1ccncc1,"inconclusive: 39.8 µM [activator, single point]",
CCCc1cc2c(n1Cc1ccc(OC)cc1)C(C)C1CN(C(=O)c3ccccc3)C(C)(C(=O)OC)C21 (stereo not given),"inconclusive: 39.8 µM [activator, single point]",
Cc1ccc(-c2cc(C(=O)Nc3cnn(C45CC6CC(CC(C6)C4)C5)c3)no2)cc1,active: 12.6 µM,
COc1ccc(S(=O)(=O)Cc2ccc(C(=O)N3CCN(c4cccc(C)c4)C(C)C3)o2)cc1 (stereo not given),"inconclusive: 31.6 µM [activator, single point]",
O=C(Oc1cc(=O)n2ccccc2n1)c1ccccc1,"inconclusive: 20 µM [inhibitor, single point]",
CCOCCCNC(=O)C(c1ccc(C)cc1)N(Cc1cccs1)C(=O)c1ccc(NC(C)=O)cc1 (stereo not given),"inconclusive: 20 µM [activator, partial curve]",
O=C(c1ccco1)N1CCN(C(c2ccc(Cl)cc2)c2nnnn2CC2CCCO2)CC1 (stereo not given),"inconclusive: 31.6 µM [activator, single point]",
CNC(=O)NC1CCCc2ccccc21 (stereo not given),,inactive: -7.41%
Cc1cc(/C=N/NC(=O)c2cccc([N+](=O)[O-])c2)c(C)n1-c1ccccc1,"inconclusive: 31.6 µM [inhibitor, single point]",
Cn1nnc2c(NCCc3ccccc3)ncnc21,,inactive: -13.5%
Cc1cc(C)c(NC(=O)Cn2c(=O)n(Cc3ccco3)c(=O)c3ccc(C(=O)NC4CCCC4)cc32)c(C)c1,"inconclusive: 39.8 µM [activator, single point]",
Cc1cccc(N2CCN(C(=O)c3cnn(-c4cccc(Cl)c4C)c3C3CCNCC3)CC2)c1C,,inactive: 7.25%
CCOc1ccc(C(=O)Nc2ccc(S(=O)(=O)N3CCOCC3)cc2)cc1OCC,"inconclusive: 31.6 µM [activator, single point]",
COc1ccc(Nc2nc3ccccc3c3nnc(C)n23)cc1Cl,"inconclusive: 39.8 µM [activator, single point]",
CC(CCc1ccccc1)NC(=O)c1ccc(NC(=O)c2cccc(Br)c2)cc1 (stereo not given),"inconclusive: 31.6 µM [inhibitor, single point]",

SMILES,Potency,"max response, negative = inhibition"
O=C(c1cccc(F)c1)N1CCC2(CC1)CCN(c1cccc(-c3ccccc3)c1)CC2,"inconclusive: 31.6 µM [inhibitor, single point]",
CCN(CC)C(=O)c1sc2c(c1C)c(=O)n(Cc1ccccc1)c(=O)n2Cc1ccc(Cl)cc1,"inconclusive: 20 µM [activator, single point]",
Cc1nc(-c2ccccc2)sc1-c1nc(-c2ccccc2)ncc1S(=O)(=O)c1ccccc1,"inconclusive: 39.8 µM [inhibitor, single point]",
O=C(CN1CCN(c2ccc(O)cc2)CC1)Nc1cc([N+](=O)[O-])ccc1Cl,active: 25.1 µM,
COc1ccc(Cl)cc1N(CC(=O)N/N=C/c1ccc(OC(C)C)cc1)S(=O)(=O)c1ccc(C)c([N+](=O)[O-])c1,active: 5.01 µM,
COc1ccc2nc(NC(=O)c3ccc(-c4cccc([N+](=O)[O-])c4)o3)sc2c1,active: 12.6 µM,
CCOc1ccc(OCC)c(NS(=O)(=O)c2cc(Br)cc3c2N(C(C)=O)C(C)C3)c1 (stereo not given),"inconclusive: 20 µM [activator, partial curve]",
CCOc1ccc2[nH]c(=O)c(CN(Cc3ccco3)C(CC)c3nnnn3Cc3ccccc3)cc2c1 (stereo not given),,inactive: 11%
COc1ccc(O)c(C(=O)c2cc(C#N)c(=O)n(CCN3CCOCC3)c2)c1,,inactive: -11.9%
COc1ccc(NC(=O)c2cc(C)nc3ccccc23)cc1S(=O)(=O)Nc1ccccc1Cl,"inconclusive: 39.8 µM [activator, single point]",
CC(=O)/C(=N/Nc1ccc(Br)cc1)Sc1cccc2cccnc12,"inconclusive: 20 µM [inhibitor, single point]",
O=C(COC(=O)c1cc([N+](=O)[O-])ccc1NCc1ccccc1)NC1CCCc2ccccc21 (stereo not given),active: 25.1 µM,
O=CNc1ccc(S(=O)(=O)NCc2ccccc2)cc1,,inactive: 0.512%
O=S(=O)(Nc1ccc(-c2ccc(N3CCCC3)nn2)cc1)c1ccc(Cl)cc1,"inconclusive: 39.8 µM [inhibitor, single point]",
O=C(Nc1cccc(-c2nc3ccccc3o2)c1)c1ccc(-c2ccc(Br)cc2)o1,"inconclusive: 6.31 µM [inhibitor, single point]",
Cc1ccc(S(=O)(=O)N2CCC(=O)N(C(COCc3cccc(C)c3)C(C)C)CC2)cc1 (stereo not given),"inconclusive: 25.1 µM [activator, single point]",
COc1ccc(S(=O)(=O)N(CCc2ccccc2)CC(=O)Nc2ccc(C)c(C)c2)cc1OC,"inconclusive: 25.1 µM [activator, single point]",
COc1ccc(NC(=O)CSc2nc3ccccc3c(=O)n2CCNC(C)=O)c(OC)c1,"inconclusive: 39.8 µM [activator, single point]",
Cc1ccc(C)n1Cc1ccc(C(=O)O)cc1,"inconclusive: 31.6 µM [activator, single point]",
CCn1c(SCC(=O)Nc2ccc(Cl)cc2)nc2nc3c(cc2c1=O)CCCC3,"inconclusive: 39.8 µM [inhibitor, single point]",
Cn1c(=O)c2c(nc(N3CCCCCC3)n2CC(O)COc2ccccc2)n(C)c1=O (stereo not given),"inconclusive: 31.6 µM [activator, single point]",
